From PubChem BioAssay AID463173 (ICCB-Longwood Screening Facility, Harvard Medical School, 2010) come the findings set out here.

Structures are written as SMILES. About 1,700 (3.3%) of roughly 52,000 compounds were called active. Rule as the data show it: active = survival mostly below about 52% (no sharp cut-off); inactive = mostly above about 56%. The list shows a part of the results.

The experiment has as its system Wild type. Description: S. aureus survival, RN4220 and DeltatarO strains – OD600, teichoic acid synthesis inhibitors, primary screen (AID 463173). Particulars: S. aureus RN4220 wild type/DeltatarO growth, OD600, 18 h, hits give low values, screened at 18.75 µg/mL (by protocol).
With `CCc1nn(Cc2c(C)cc(C)cc2C)c(=O)c2cc3cc(C)ccc3n12`, the survival was inactive: 96%. Turning to `CCCC12CN3CC(CCC)(CN(C1)C3c1c(C)[nH]c(=O)[nH]c1=O)C2=O` (stereo not given), the survival is inactive: 111%. To `O=C(Nc1ccc(F)cc1F)N1CCN(c2ccc(Cl)c(Cl)c2)CC1` belongs inactive: 52%; to `COc1cc(Nc2ncc3c(n2)CCN(Cc2cc(F)cc(F)c2)C3)cc(OC)c1`, inactive: 76%; to `Cc1ccc(C)c(N2CCN(S(=O)(=O)c3ccc4c(c3)OCCO4)CC2)c1`, inactive: 102%. For the compound `CCOc1ccc(-c2csc(-c3c(N)c(C(=O)c4ccc5c(c4)OCO5)n4ccccc34)n2)cc1`, the survival is inactive: 128%.

As to `COc1ccc(C)cc1NC(=O)CN1C(=O)COc2ccc(S(=O)(=O)NC3CCCC3)cc21`, the survival is inactive: 85%.

`CCOc1ccccc1NC(=O)c1nn(C)c2c1CSc1ccccc1-2`: the survival was inactive: 88%. With `O=C(CSC1=NCCN1)C1COc2ccccc2O1` (stereo not given) the figure was inactive: 76%; with `CN(C)CCNC(=O)c1ccc(Cn2c(=O)c3cccn3c3cccnc32)cc1`, inactive: 89%.

As to `Cn1nc(-c2ccc(N3CCCCC3)c(NC(=O)c3ccc(Cl)cc3)c2)c2ccccc2c1=O`, the survival was inactive: 80%.

As for `COc1ccc(-n2c(=O)c3c4c(sc3n3c(SC(C)C)nnc23)COC(C(C)C)C4)cc1` (stereo not given), the survival was inactive: 88%. To `CCCc1cc(=O)[nH]c(SCc2nc(-c3ccccc3F)no2)n1` belongs inactive: 129%; to `CCOC(=O)c1cc(S(=O)(=O)Nc2ccccc2OCC)[nH]n1`, inactive: 64%. To `Cc1ccccc1CSc1nc2c([nH]c3ccccc32)c(=O)n1C` belongs inactive: 71%; to `Cc1ccc(-n2ncc(C(=O)NCCN3CCc4ccccc4C3)c2C2CCNCC2)cc1C`, inactive: 87%; to `COc1ccc(NC(=O)c2cc(=O)c3ccc(C)c(C)c3o2)cc1Cl`, inactive: 91%.

`CCCn1c(=NC(=O)c2c(-c3c(F)cccc3Cl)noc2C)c(C(=O)OCC)cc2c(=O)n3ccccc3nc21`: the survival is inactive: 138%.

With `C=CCn1c(N)c(C(N)=O)sc1=S`, the survival was inactive: 99%. As for `CC(=O)c1cccc(Nc2ccc3cc(S(=O)(=O)N4CCCC4)ccc3n2)c1`, the survival was inactive: 73%. With `CC1=[N+](CCC#N)CC(C)(C)C1`, the survival is inactive: 105%. With `Cc1cccc(CNC(=O)c2ccc(NC(=O)N3CCSc4ncccc43)cc2)c1` the figure was inactive: 71%. With `CC1CCN(S(=O)(=O)c2ccc3c(c2)N(CC(=O)NCCCN2CCCC(C)C2)C(=O)CS3)CC1` (stereo not given) the figure was inactive: 83%; with `CCOc1ccc(NC(=O)C(C)Sc2nc3ncccc3o2)cc1` (stereo not given), inactive: 57%; with `Cc1ccc(CC(=O)NC2CCSC2=O)cc1` (stereo not given), inactive: 103%. With `COc1ccc(-n2nc(C(=O)Nc3cccc(C)n3)c3c4ccccc4n(C)c3c2=O)cc1` the figure was inactive: 69%. Turning to `CC(=O)c1ccc(N2CCN(c3ncnc4c3cnn4C)CC2)cc1`, the survival was inactive: 83%. To `Cc1ccc2c(c1)-c1ncc(C(=O)c3cc(Br)ccc3O)cc1CO2` belongs inactive: 56%.

For `Cc1cccc(NC(=O)c2oc3ccc(S(=O)(=O)N4CCC5(CC4)OCCO5)cc3c2C)c1C`, the survival was inactive: 135%.

Take `Cc1cc(Nc2ccccc2O)c2ccccc2n1`: the survival was inactive: 104%. On to `Cc1nc(-c2ccccc2)cc(=O)[nH]1`, for which the survival is inactive: 115%. As to `CC(C)C(c1nnnn1C1CCCC1)N1CCN(C(=O)c2ccco2)CC1` (stereo not given), the survival was inactive: 102%.

In the case of `Cc1cc(C)cc(NC(=O)Cn2c(=O)n(Cc3ccc4c(c3)OCO4)c(=O)c3oc4ccccc4c32)c1`, the survival is inactive: 81%.

With `N#CCSc1nc2ccccc2c(=O)n1-c1ccccc1`, the survival is inactive: 117%. To `Cc1cccc(CNC(=O)Cn2ccc3cc(S(=O)(=O)N4CCC(C)CC4)ccc32)c1` belongs inactive: 67%; to `O=C(Cn1c(=O)n(Cc2nc(-c3ccccc3)no2)c(=O)c2cc3c(cc21)OCO3)Nc1cccc(C(F)(F)F)c1`, inactive: 77%; to `COc1ccc(-c2ccc(CCC(=O)O)n2-c2cc(Cl)ccc2O)cc1`, inactive: 68%.

Take `COc1ccccc1-c1cc(C(F)(F)F)nc(S(=O)(=O)CCCC(=O)Nc2ccc(F)cc2F)n1`: the survival was inactive: 84%.

Take `O=C(c1cnn2c1NC(c1cccs1)CC2C(F)(F)F)N1CCSCC1` (stereo not given): the survival was inactive: 98%.

As to `COc1cccc(C2CC(=O)Nc3c2c(=O)n(C)c2nc4ccccc4n32)c1` (stereo not given), the survival was inactive: 75%. To `CCOC(=O)c1c(C)[nH]c(C)c1S(=O)(=O)N(C)CC(=O)Nc1cccc(C(F)(F)F)c1` belongs inactive: 69%. With `CCOC(=O)C1CCN(C(=O)Cn2ncc3c([nH]c4ccccc43)c2=O)CC1` the figure was inactive: 19%. To `Cc1cccc(C(=O)Nc2nc(-c3nnn(-c4cc(C)ccc4C)c3C)ns2)c1` belongs inactive: 78%.

`Cc1ccc(-n2c(-c3ccc(Br)cc3)nc3c(cnn3-c3ccccc3)c2=O)cc1`: the survival is inactive: 66%.

As to `O=C(Cn1c(=O)n(Cc2ccco2)c(=O)c2ccccc21)Nc1cccc(F)c1`, the survival was inactive: 97%. To `COc1ccc(NC(=O)Cn2c(=O)n(Cc3ccco3)c(=O)c3sc4ccccc4c32)cc1OC` belongs inactive: 95%; to `CCOc1cc(C#N)c(NC(=O)c2ccc(OC)c(S(=O)(=O)N3CCCCC3)c2)cc1OCC`, inactive: 75%. With `CC(=O)c1ccc(NC(=O)c2cnc(N3CCCC3)nc2C)cc1` the figure was inactive: 80%; with `CC(C)(C)c1ccc(C(=O)N2CCC(C(=O)O)CC2)cc1`, inactive: 109%. With `CCc1ccccc1NC(=O)Cn1c(=O)n(-c2ccccc2)c(=O)c2oc3ccccc3c21` the figure was inactive: 98%; with `c1ccc2[nH]c(CN3CCCCC3)nc2c1`, inactive: 99%. `Cc1c2cnn(-c3ccccc3)c(=O)c2c(C)n1CC(=O)Nc1ccccc1Br`: the survival was inactive: 78%. With `COc1ccccc1N1CCN(S(=O)(=O)c2ccc(-c3coc(C)n3)cc2)CC1`, the survival is inactive: 68%.

As for `Cc1ccc(Cn2c(C3CC3)nc3ccc(N)cc3c2=O)cc1`, the survival was inactive: 112%. Turning to `CCc1ccccc1NC(=O)CSc1nc2ccccc2n1CC(=O)N(C)C`, the survival was inactive: 103%. With `O=C(C1CCCCC1)N(Cc1cccnc1)c1nc2ccc(Cl)cc2s1` the figure was inactive: 72%.

In the case of `Cc1ccc(N2CCN(C(=O)c3cn(C)c4ccc(S(=O)(=O)N5CCC(C)CC5)cc4c3=O)CC2C)cc1` (stereo not given), the survival is inactive: 126%.

As to `CCN(C(=O)CSc1nc(-c2ccc(C(C)C)cc2)no1)c1ccccc1`, the survival is inactive: 82%. To `O=C(Nc1nnc(S(=O)(=O)N2CCCc3ccccc32)s1)c1ccc(Cl)cc1` belongs inactive: 19%; to `COc1ccc2c(c1)CC(C(=O)Nc1ccc(Br)c(C)c1)CO2` (stereo not given), inactive: 65%; to `Cn1c(CCc2nc3ccccc3[nH]2)nnc1SCC#N`, inactive: 103%. With `CCn1nnnc1SCC(=O)Nc1ccccc1` the figure was inactive: 102%; with `COc1ccc(C(=O)NCC(=O)OCc2cc(=O)n3nc(C4CCCCC4)sc3n2)cc1`, inactive: 72%. To `Cc1ccccc1-c1nc(CS(=O)(=O)CC(=O)NCCCN2CCN(C)CC2)c(C)o1` belongs inactive: 80%; to `Cc1nn(-c2ccccc2)c2sc(C(=O)N(Cc3ccco3)C(C)C(=O)NC3CCCCC3)cc12` (stereo not given), inactive: 102%; to `COc1ccc(NC(=O)CSc2nncn3c2cc2occc23)c(OC)c1`, inactive: 89%. `COc1ccc(-n2nnc(-c3nc(-c4ccc5c(c4)OCO5)no3)c2C)cc1Cl`: the survival was inactive: 90%. For `NC(=O)c1ccccc1NC(=O)COCC(=O)O`, the survival was inactive: 108%. To `CCOCC(=O)Nc1nc2ccccc2s1` belongs inactive: 106%. As to `CCOC(=O)c1ccc(NC(=O)CCc2c(C)nc3cc(-c4ccc(OC)cc4OC)nn3c2C)cc1`, the survival was inactive: 93%. As for `Cc1ccc(SCCNC(=O)CN(c2cccc(C)c2C)S(C)(=O)=O)cc1`, the survival was inactive: 67%. To `COc1cc(C(=O)Nc2ccc(-c3nc4cc(C)c(C)cc4o3)cc2)cc(OC)c1OC` belongs inactive: 74%; to `CC(C)Oc1ccc(C(=O)N2CCC(c3nc4ccccc4s3)CC2)cc1`, inactive: 82%. As to `CC1=C(C(=O)NCc2cccc(Cl)c2)C2(CCCCCC2)OC1=O`, the survival was inactive: 87%. To `CCOC(=O)c1c(C)oc2nc(C)nc(NCCc3ccc(OCC)cc3)c12` belongs inactive: 70%; to `CC(=O)Nc1ccc(S(=O)(=O)N2CCC(n3c(C)nc4cccnc43)CC2)cc1`, inactive: 76%. To `CCC(C)NC(=O)Cn1c(=O)n(-c2cc(OC)cc(OC)c2)c(=O)c2ccccc21` (stereo not given) belongs inactive: 94%.

For `COc1ccc(NC(=O)CCCc2nnc3n(C(C)C)c(=O)c4sccc4n23)cc1Cl`, the survival was inactive: 104%. With `Cc1ccc2c(CNCCc3ccco3)c(C(=O)O)n(Cc3ccc(F)cc3)c2c1` the figure was inactive: 66%. With `CCOc1ccc(CN(CCc2ccc3c(c2)OCO3)Cc2cc(OC)cc(OC)c2)cc1` the figure was inactive: 57%; with `O=C(CSc1nccn1Cc1ccco1)Nc1ccc(OC(F)(F)F)cc1`, inactive: 73%; with `Cc1cc(=O)[nH]c2nnc(SCc3cccc(C(F)(F)F)c3)n12`, inactive: 127%. For the compound `CCOc1ccc(NC(=O)Cn2cc(C(=O)C3CC3)c3ccccc32)cc1`, the survival is inactive: 78%.

`CCN1CCC(N(Cc2ccc(F)cc2)C(=O)Nc2ccc(C)c(F)c2)CC1`: the survival was inactive: 87%. With `COc1ccc(C(=O)Nc2ccc(-c3nc4cc(C)ccc4o3)c(O)c2)cc1` the figure was inactive: 76%.

With `CC(C)c1ccc(NC(=O)Cn2nnc(C(=O)NCCc3ccccc3)c2N)cc1`, the survival was inactive: 82%. To `COc1cc(Cl)c(NC(=O)CN2C(=O)c3cccnc3Sc3ccccc32)c(OC)c1` belongs inactive: 72%; to `Cc1nc(N2CCOCC2)c2c(C(=O)N3CCN(c4cccc(C(F)(F)F)c4)CC3)c(C)oc2n1`, inactive: 79%; to `COc1ccc(NC(=O)C(Cc2ccccc2)NS(=O)(=O)c2ccc3c(c2)oc(=O)n3C)c(OC)c1` (stereo not given), inactive: 158%. To `Cc1cccc2nc(-c3ccc(Cl)s3)c(Nc3ccc4c(c3)OCCO4)n12` belongs inactive: 74%.
